Read counts are not given, so values of variants with three or more changes are uncertain.
B1: LINE1-mini (parent)
chain: GGCAGAGCUCAACACAGCGUGGCAAAGUGGCUGUGGCUAGACUGCC

Variants of: B1
Test: self-cleavage, relative activity (ratio to wild type); higher = more cleavage; in vitro, sequencing; the parent is a self-cleaving ribozyme

Row | Variant | self-cleavage
1 | A14G A41C U43C C45G | 0.02
2 | A14U G17U A39G G40C | 0.06
3 | A14G G35U A39G | 0.15
4 | A14C U28G C45A | 0.04
5 | A14U G21C C46U | 0.1
6 | A14U C18A G21U C46A | 0.14
7 | A14C G33C G40C | 0.01
8 | A14U C23A C46A | 0.23
9 | A14G C15U A39C C45A | 0.06
10 | A14G C18G G36A C37U | 0.06
11 | A14U U28A G35U U38C G44U C46U | 0.01
12 | A14U G36U G40A | 0.35
13 | A14U G22C C37G A41C | 0.03
14 | A14U G19A C45A | 0.47
15 | A14U G21U C45A | 0.12
16 | C15A A16C C18G U20A G22C G29U G30U U32G | 0.06
17 | A14U A26U U28A G29C G40A | 0.03
18 | A14G C37A C45U | 0.05
19 | A14G U20G C31U | 0.02
20 | C15A A16C C31G | 0.01
21 | A14G C42U G44A C46G | 0.04
22 | A14G G19C A25U | 0.26
23 | C15A A16G A25U C37A C42A | 0.07
24 | A14C U34C G36A C37A | 0.02

Row | Variant | self-cleavage
25 | A14C U28G G36U | 0
26 | A14U C31U G33C U38A | 0.03
27 | A14G A16U C42A U43A | 0
28 | A14G C15U C18G A39C A41G | 0.04
29 | A14G G35U C42A C45G | 0.01
30 | A14G G17A G19A G21C A25U | 0.13
31 | A14G C15U C31U A41C | 0.03
32 | A14U C15G C46U | 0.02
33 | A14G C18A U20C U34C A39C | 0.05
34 | A14U G19C G27U | 0.04
35 | A14U A25G A39C G44A | 0.01
36 | A14G C18A A24G A25U | 0.04
37 | A14U G22A A25U G27A C31A | 0.1
38 | A14G C31U C37U C45G | 0.11
39 | A14U G27U C46A | 0.88
40 | A14U A24C G35A | 0.22
41 | A14U G17A G21U U28A | 0.04
42 | A14U G21U G22A C37U G44A | 0.06
43 | A14G U32G A41C U43A | 0.05
44 | A14G G30U U38G G40U | 0.09
45 | A14U A24G U28A | 0.05
46 | A14G U20C G35U | 0.06
47 | A14U C15G G22U | 0
48 | A14U G30A A39G C42G C46G | 0.01

Row | Variant | self-cleavage
49 | A14U G40C A41C C45U | 0.05
50 | A14G G30A A41C | 0.03
51 | A14G G40U C45A | 0.05
52 | A14U C18A U20A | 0.01
53 | A14U C18A C31U | 0
54 | A14C G40C U43C | 0.07
55 | A14U U34A C37U | 0.03
56 | A14G U28G G44U C46U | 0.02
57 | A14G G27U G44U | 0
58 | A14G G27U G44C | 0.12
59 | C15A A16G U38G A41U | 0.01
60 | A14G C42A C45A | 0.02
61 | A14C U34A U38C C42A G44A | 0.11
62 | C15A A16C A26U C42A | 0.04
63 | A14G G30C G35U | 0.02
64 | A14U A24G G40U C45A C46U | 0.05
65 | A14G G35A A39U | 0.02
66 | A14G G22U U32A | 0.07
67 | A14G A26C U28A U38A U43A | 0.04
68 | A14U G29U C31A G35U C37U U38G G40U | 0
69 | A14U C45G C46G | 0.08
70 | A14G C15A G21U | 0.05
71 | A14G G17U G30C G35U | 0.23
72 | A14G A26C U28A G40C G44U | 0.03

Row | Variant | self-cleavage
73 | A14G U28A G33C C46U | 0.01
74 | A14U G21U C42U | 0.38
75 | A14G U20G U28C G44A | 0.07
76 | A14G G17A C23A A26G C42U U43A | 0.01
77 | A14U A39C G44U C45U C46U | 0
78 | A14U G27A G30A U32G G35C | 0.05
79 | A14G G17A A26G | 0.06
80 | A14G G17C G27A | 0.11
81 | A14G G19U C31U U38G | 0
82 | A14G C23A C37A | 0
83 | A14U A16U U28A G29U U32C | 0.04
84 | A14U G17U C18U G44A | 0.07
85 | A14G U28A C45G | 0.2
86 | A14G G17A A41U | 0.02
87 | A14C U20C G30U | 0.01
88 | A14U G29U C46A | 0.41
89 | A14U A24U G29U | 0.28
90 | A14G A26C C37G A41U | 0.01
91 | A14G G30A C37G C45A | 0.02
92 | A14G A16U G21U G40A | 0.14
93 | A14G U28C C31U | 0.03
94 | A14U G35U A41C | 0.13
95 | A14G G17A U32A | 0.09
96 | A14G G19U C45U | 0.19

Row | Variant | self-cleavage
97 | A14G A25C C37A A41G C46U | 0.14
98 | A14G U20G G22C A24U | 0.09
99 | A14U G29U U34G | 0.08
100 | C15A A16C C37A G44U | 0.14
101 | A14U G19A A26C C42G | 0.07
102 | A14U U32A C42A | 0.07
103 | A14G G17C C23U U32C G40C | 0.04
104 | A14U U20G U34A | 0.1
105 | A14G A39G G40C | 0
106 | A14U U38C C42A | 0.06
107 | A14G C15A G19U C23A U32G | 0.01
108 | A14U A25C G35A | 0.03
109 | A14U G21C A26C C37A G40U | 0.02
110 | A14U C15U C46A | 0.17
111 | A14U G17C U34C | 0.05
112 | A14U G17A G29C G44A | 0.04
113 | A14G A24G G30A A39C | 0.02
114 | A14U G22U A26C G44U | 0.13
115 | A14U U20A G40U U43A | 0.03
116 | A14U U20A G30C C31U U34C U38A | 0.03
117 | A14G U32C C37U C45U | 0.01
118 | A14G C15A G40U | 0.15
119 | A14G G35C U38A | 0.01
120 | A14U G17U C23U G30A | 0.03

Row | Variant | self-cleavage
121 | A14U A16C A26G G27U | 0
122 | A14U G35C G44A | 0.28
123 | A14G C23A G35A A41G | 0.04
124 | A14U A24C C46G | 0.03
125 | C15A A16C G22U G27U G35C | 0.03
126 | A14U A25U G40C | 0.04
127 | A14U C31A G33A A41C | 0.02
128 | A14G C31A U32G U34G C46A | 0.02
129 | A14G U28G G33C | 0.03
130 | A14U C23A C31G | 0
131 | A14U C18G G19C C37A | 0.1
132 | A14U C15A C18U U28C G33U A41G | 0.03
133 | A14G G17A U28G U38G G40A | 0.01
134 | A14G C15U A41U | 0.35
135 | A14U C42A U43A C45U | 0
136 | A14G G21U G22A A24U | 0.91
137 | A14U C15A G17A G19U G27C U38A | 0
138 | A14G G35C C45G | 0.7
139 | A14G G17U A24C C46U | 0.03
140 | A14G G30A G33A | 0.05
141 | A14U U20G A24U | 0.09
142 | A14U C15U C18U | 0.01
143 | A14G C23U G30U A41G | 0.15
144 | C15A A16G C23A A39G | 0.02

Row | Variant | self-cleavage
145 | A14U G19A G35C G36A C37A | 0.07
146 | A14G A39U A41U | 0.1
147 | A14U G29A C45A | 0.09
148 | A14U G33A C42U | 0.02
149 | A14G U28C G36A | 0.27
150 | A14U G21U A24U U34G U43C | 0.07
151 | A14U C15A G35A C46G | 0.07
152 | A14U G30C G44A | 0.03
153 | A14G C18A G44U | 0.04
154 | A14U G17C C31G U32G G36A | 0
155 | A14G C23G C42G | 0
156 | A14G G30C C37A C45A | 0
157 | A14U G29U C42U | 0.01
158 | A14U G21U U28A | 1.54
159 | A14U C23A G44U | 0.04
160 | A14G C15A A26C A41U | 0.03
161 | A14U G19U A39G | 0.08
162 | A14G G17A G36U C46A | 0.04
163 | A14G G29C C42G | 0.03
164 | A14G A26G G27U G35U C37A | 0
165 | A14U U28C U32A C45G | 0.15
166 | A14U A25C A26C G36C | 0.15
167 | A14U A16C G29A C45U | 0.26

Source: the RNAGym collection of RNA variant scans (doi:10.7554/elife.90254)
